According to the supplement of paper PMC12067230:
The data scatter; read single values as rough.

test: amyloid nucleation score relative to library mode (yeast Sup35 reporter selection) (log enrichment difference); higher = more amyloid nucleation; sequences are the first 22 residues of the Bri2 peptide extended by up to 12 random residues; settings: random library (experiment): 1;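 active = nucleation score significantly above 0 at FDR 0.05; inactive = not significantly above 0 or absent from output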
Protocol: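 Random C-terminal extensions of the 22-aa Bri2 peptide by 12 NNK codons; premature stops give shorter extensions. Peptides were fused to the Sup35 nucleation domain in S. cerevisiae [psi-pin-] and selected on -ADE-URA plates for 7 d at 30 °C. The nucleation score is log(output/input), centred to the mode of each of 3 independent libraries (1 input, 3 technical output replicates), with duplicates merged. Sequences absent from the output ('random_non_nuc') were imputed with the library mode value, so they are given as censored (<). Nucleators are scores significantly >0 at FDR 0.05.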
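Note: [psi-pin-] Saccharomyces cerevisiae expressing SupN fusions, induced by 100 µM Cu2SO4, selected 7 d at 30 °C without adenine and uracil, scored by deep sequencing of output versus input.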

Q: With EASNCFAIRHFENKFAVETLICAA as the sequence, how does the amyloid nucleation score read?
A: inactive

Q: For EASNCFAIRHFENKFAVETLICAAALGGEWVRER, which amyloid nucleation score is on record?
A: 2.95

Q: Which amyloid nucleation score does the source give for EASNCFAIRHFENKFAVETLICAAANYKRMRDEW here?
A: 1.01

Q: Which amyloid nucleation score does the source give for EASNCFAIRHFENKFAVETLICAAATSR here?
A: inactive

Q: For EASNCFAIRHFENKFAVETLICAAAVRSVWAGGA, which amyloid nucleation score is on record?
A: inactive

Q: For EASNCFAIRHFENKFAVETLICAAAVVVLAETRE, which amyloid nucleation score is on record?
A: 7.98

Q: With EASNCFAIRHFENKFAVETLICAAEACHSWSRWH as the sequence, how does the amyloid nucleation score read?
A: inactive

Q: For EASNCFAIRHFENKFAVETLICAAGATATRPARW, which amyloid nucleation score is on record?
A: inactive

Q: Which amyloid nucleation score does the source give for EASNCFAIRHFENKFAVETLICAAKVEASEVFGR here?
A: inactive

Q: With EASNCFAIRHFENKFAVETLICAAMVCRIQQGRA as the sequence, how does the amyloid nucleation score read?
A: 3.5

Q: With EASNCFAIRHFENKFAVETLICAAN as the sequence, how does the amyloid nucleation score read?
A: inactive

Q: Which amyloid nucleation score does the source give for EASNCFAIRHFENKFAVETLICAANETSV here?
A: inactive

Q: With EASNCFAIRHFENKFAVETLICAAP as the sequence, how does the amyloid nucleation score read?
A: inactive

Q: With EASNCFAIRHFENKFAVETLICAAPCTLIMISAG as the sequence, how does the amyloid nucleation score read?
A: inactive

Q: For EASNCFAIRHFENKFAVETLICAAPGQQDGEILW, which amyloid nucleation score is on record?
A: 2.98

Q: For EASNCFAIRHFENKFAVETLICAAPKVMECGVLS, which amyloid nucleation score is on record?
A: inactive

Q: With EASNCFAIRHFENKFAVETLICAAQMVQRNIRAM as the sequence, how does the amyloid nucleation score read?
A: inactive

Q: Which amyloid nucleation score does the source give for EASNCFAIRHFENKFAVETLICAAQSEYVPVASG here?
A: inactive

Q: Which amyloid nucleation score does the source give for EASNCFAIRHFENKFAVETLICAARADRGGQVPR here?
A: inactive

Q: With EASNCFAIRHFENKFAVETLICAARRSQTAVVRE as the sequence, how does the amyloid nucleation score read?
A: inactive

Q: Which amyloid nucleation score does the source give for EASNCFAIRHFENKFAVETLICAARVAWGHGHVE here?
A: 1.97

Q: Which amyloid nucleation score does the source give for EASNCFAIRHFENKFAVETLICAARVGATVIGGS here?
A: inactive

Q: With EASNCFAIRHFENKFAVETLICAASKAGTVEWRR as the sequence, how does the amyloid nucleation score read?
A: inactive

Q: Which amyloid nucleation score does the source give for EASNCFAIRHFENKFAVETLICAAVWTSARSVRG here?
A: inactive

Q: With EASNCFAIRHFENKFAVETLICAAWASGDWVEEW as the sequence, how does the amyloid nucleation score read?
A: inactive

Q: For EASNCFAIRHFENKFAVETLICAAYRYTAHVARW, which amyloid nucleation score is on record?
A: inactive

Q: For EASNCFAIRHFENKFAVETLICAAYVRRQSLCCF, which amyloid nucleation score is on record?
A: 0.458

Q: Which amyloid nucleation score does the source give for EASNCFAIRHFENKFAVETLICACALFLQRRELV here?
A: inactive

Q: For EASNCFAIRHFENKFAVETLICACATSVALGSGA, which amyloid nucleation score is on record?
A: 3.89

Q: With EASNCFAIRHFENKFAVETLICACDFIHRLMSGP as the sequence, how does the amyloid nucleation score read?
A: 5.62

Q: For EASNCFAIRHFENKFAVETLICACE, which amyloid nucleation score is on record?
A: 0.547

Q: For EASNCFAIRHFENKFAVETLICACEL, which amyloid nucleation score is on record?
A: 0.00985

Q: Which amyloid nucleation score does the source give for EASNCFAIRHFENKFAVETLICACFGSGHERSQW here?
A: 8.75

Q: Which amyloid nucleation score does the source give for EASNCFAIRHFENKFAVETLICACGCLCCGNVGG here?
A: 6.91

Q: With EASNCFAIRHFENKFAVETLICACGVHMKRGKQG as the sequence, how does the amyloid nucleation score read?
A: 6.13

Q: Which amyloid nucleation score does the source give for EASNCFAIRHFENKFAVETLICACHDVKYLGPRT here?
A: 8.39

Q: With EASNCFAIRHFENKFAVETLICACKTA as the sequence, how does the amyloid nucleation score read?
A: inactive

Q: Which amyloid nucleation score does the source give for EASNCFAIRHFENKFAVETLICACLLRCVVGVAA here?
A: inactive

Q: Which amyloid nucleation score does the source give for EASNCFAIRHFENKFAVETLICACRFE here?
A: 3.68

Q: With EASNCFAIRHFENKFAVETLICACRWGPGAVSWA as the sequence, how does the amyloid nucleation score read?
A: 5.23

Q: With EASNCFAIRHFENKFAVETLICACSCNASYRPRL as the sequence, how does the amyloid nucleation score read?
A: 8.04

Q: Which amyloid nucleation score does the source give for EASNCFAIRHFENKFAVETLICACVFARQVVKGV here?
A: inactive

Q: Which amyloid nucleation score does the source give for EASNCFAIRHFENKFAVETLICACVGRIVWQQLR here?
A: inactive

Q: For EASNCFAIRHFENKFAVETLICACWHVMRFNEEP, which amyloid nucleation score is on record?
A: 2.88

Q: Which amyloid nucleation score does the source give for EASNCFAIRHFENKFAVETLICACWMLMVRVFVN here?
A: inactive

Q: For EASNCFAIRHFENKFAVETLICADGCTGATWPSM, which amyloid nucleation score is on record?
A: inactive

Q: For EASNCFAIRHFENKFAVETLICADLDCFAPLVQG, which amyloid nucleation score is on record?
A: inactive

Q: Which amyloid nucleation score does the source give for EASNCFAIRHFENKFAVETLICADPSRMEREGRE here?
A: inactive

Q: With EASNCFAIRHFENKFAVETLICADQRVVEVRGTT as the sequence, how does the amyloid nucleation score read?
A: inactive

Q: With EASNCFAIRHFENKFAVETLICADRFSWGWLEPG as the sequence, how does the amyloid nucleation score read?
A: inactive

Q: For EASNCFAIRHFENKFAVETLICADRVTGSHHVVG, which amyloid nucleation score is on record?
A: inactive

Q: With EASNCFAIRHFENKFAVETLICADSLGRRLASRG as the sequence, how does the amyloid nucleation score read?
A: 5.39

same assay, conditions: random library (experiment): 2

Q: Which amyloid nucleation score does the source give for EASNCFAIRHFENKFAVETLICAAEWSMCINMKN here?
A: -0.631

Q: Which amyloid nucleation score does the source give for EASNCFAIRHFENKFAVETLICAAFLQLWEGIC here?
A: inactive

Q: Which amyloid nucleation score does the source give for EASNCFAIRHFENKFAVETLICAC here?
A: inactive

Q: With EASNCFAIRHFENKFAVETLICACIELFS as the sequence, how does the amyloid nucleation score read?
A: 4.74

Q: With EASNCFAIRHFENKFAVETLICACSVRSGVVMCV as the sequence, how does the amyloid nucleation score read?
A: inactive

Q: Which amyloid nucleation score does the source give for EASNCFAIRHFENKFAVETLICADNLWRFYIVVL here?
A: inactive

Q: For EASNCFAIRHFENKFAVETLICADNNSFNGSAVN, which amyloid nucleation score is on record?
A: inactive

same assay, conditions: random library (experiment): 3

Q: Which amyloid nucleation score does the source give for EASNCFAIRHFENKFAVETLICAADACIMNCWIE here?
A: 6.4

Q: With EASNCFAIRHFENKFAVETLICAAEVHA as the sequence, how does the amyloid nucleation score read?
A: inactive

Q: For EASNCFAIRHFENKFAVETLICAAFASPVSAGST, which amyloid nucleation score is on record?
A: 1.43

Q: With EASNCFAIRHFENKFAVETLICAAFAYCAGHTFA as the sequence, how does the amyloid nucleation score read?
A: inactive

Q: For EASNCFAIRHFENKFAVETLICAAFGWAANNWPG, which amyloid nucleation score is on record?
A: 3.88

Q: With EASNCFAIRHFENKFAVETLICAAPMSVCVWNAK as the sequence, how does the amyloid nucleation score read?
A: 8.74

Q: With EASNCFAIRHFENKFAVETLICAARV as the sequence, how does the amyloid nucleation score read?
A: inactive

Q: Which amyloid nucleation score does the source give for EASNCFAIRHFENKFAVETLICAASMYWECKVPG here?
A: inactive

Q: Which amyloid nucleation score does the source give for EASNCFAIRHFENKFAVETLICAASVARMVYVLR here?
A: inactive

Q: For EASNCFAIRHFENKFAVETLICAAVVGYETPVAV, which amyloid nucleation score is on record?
A: inactive

Q: With EASNCFAIRHFENKFAVETLICAAWRFTPKGEWV as the sequence, how does the amyloid nucleation score read?
A: inactive

Q: With EASNCFAIRHFENKFAVETLICACELYPKRNCFA as the sequence, how does the amyloid nucleation score read?
A: inactive

Q: Which amyloid nucleation score does the source give for EASNCFAIRHFENKFAVETLICACF here?
A: 3.94

Q: For EASNCFAIRHFENKFAVETLICACHCRILLLLEA, which amyloid nucleation score is on record?
A: inactive

Q: Which amyloid nucleation score does the source give for EASNCFAIRHFENKFAVETLICACLTRYGLGRMF here?
A: inactive

Q: With EASNCFAIRHFENKFAVETLICACMSYRCSLFG as the sequence, how does the amyloid nucleation score read?
A: 4.64

Q: With EASNCFAIRHFENKFAVETLICACMWCSTWVLWD as the sequence, how does the amyloid nucleation score read?
A: 0.867

Q: For EASNCFAIRHFENKFAVETLICACPLVRKPDVPR, which amyloid nucleation score is on record?
A: 8.39

Q: Which amyloid nucleation score does the source give for EASNCFAIRHFENKFAVETLICACPQPLLRWAWG here?
A: inactive

Q: With EASNCFAIRHFENKFAVETLICACQECRRSHDPV as the sequence, how does the amyloid nucleation score read?
A: 6.77

Q: Which amyloid nucleation score does the source give for EASNCFAIRHFENKFAVETLICACRDAACERFSM here?
A: 5.16

Q: With EASNCFAIRHFENKFAVETLICACRFV as the sequence, how does the amyloid nucleation score read?
A: 5.41

Q: Which amyloid nucleation score does the source give for EASNCFAIRHFENKFAVETLICACRRVADDWYLA here?
A: inactive

Q: For EASNCFAIRHFENKFAVETLICAD, which amyloid nucleation score is on record?
A: inactive

Q: Which amyloid nucleation score does the source give for EASNCFAIRHFENKFAVETLICADCKLNGSVRGR here?
A: inactive

Q: Which amyloid nucleation score does the source give for EASNCFAIRHFENKFAVETLICADGLRSRGRSCR here?
A: inactive

Q: With EASNCFAIRHFENKFAVETLICADNVVNVPRGES as the sequence, how does the amyloid nucleation score read?
A: 6.73
